Consider twelve molecules from article PMC4428065.

Sequences of proteins named here, by UniProt entry; tags and fusion partners are left off.
UniProt P14713: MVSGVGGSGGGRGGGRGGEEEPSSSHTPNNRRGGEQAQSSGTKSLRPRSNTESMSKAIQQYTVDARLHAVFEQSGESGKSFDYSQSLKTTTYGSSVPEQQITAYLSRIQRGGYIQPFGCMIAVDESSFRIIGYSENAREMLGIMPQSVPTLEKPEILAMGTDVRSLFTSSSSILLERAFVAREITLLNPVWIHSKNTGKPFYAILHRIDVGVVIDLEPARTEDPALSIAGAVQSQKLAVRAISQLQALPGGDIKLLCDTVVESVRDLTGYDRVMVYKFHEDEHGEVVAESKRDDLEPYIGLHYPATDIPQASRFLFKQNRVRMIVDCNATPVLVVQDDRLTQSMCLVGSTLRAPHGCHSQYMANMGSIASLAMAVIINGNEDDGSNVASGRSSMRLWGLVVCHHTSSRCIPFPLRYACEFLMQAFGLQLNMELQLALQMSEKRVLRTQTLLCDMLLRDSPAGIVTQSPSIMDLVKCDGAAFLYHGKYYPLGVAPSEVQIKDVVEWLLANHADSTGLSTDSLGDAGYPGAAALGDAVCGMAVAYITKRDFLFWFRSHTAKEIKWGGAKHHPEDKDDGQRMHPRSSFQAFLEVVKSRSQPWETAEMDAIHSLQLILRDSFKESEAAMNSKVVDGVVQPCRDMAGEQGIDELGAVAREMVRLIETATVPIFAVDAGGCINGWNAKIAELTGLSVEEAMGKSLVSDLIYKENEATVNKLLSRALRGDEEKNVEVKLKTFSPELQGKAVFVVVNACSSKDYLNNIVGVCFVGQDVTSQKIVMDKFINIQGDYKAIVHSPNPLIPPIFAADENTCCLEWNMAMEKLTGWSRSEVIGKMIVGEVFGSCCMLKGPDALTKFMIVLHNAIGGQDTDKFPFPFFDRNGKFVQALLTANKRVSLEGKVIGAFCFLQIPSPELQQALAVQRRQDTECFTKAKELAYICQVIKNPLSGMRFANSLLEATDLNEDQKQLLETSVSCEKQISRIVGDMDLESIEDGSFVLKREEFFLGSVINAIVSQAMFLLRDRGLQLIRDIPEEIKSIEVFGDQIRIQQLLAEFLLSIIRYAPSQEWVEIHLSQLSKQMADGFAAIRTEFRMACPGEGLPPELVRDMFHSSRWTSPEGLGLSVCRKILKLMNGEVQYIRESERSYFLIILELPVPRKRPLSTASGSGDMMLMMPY
UniProt Q39057: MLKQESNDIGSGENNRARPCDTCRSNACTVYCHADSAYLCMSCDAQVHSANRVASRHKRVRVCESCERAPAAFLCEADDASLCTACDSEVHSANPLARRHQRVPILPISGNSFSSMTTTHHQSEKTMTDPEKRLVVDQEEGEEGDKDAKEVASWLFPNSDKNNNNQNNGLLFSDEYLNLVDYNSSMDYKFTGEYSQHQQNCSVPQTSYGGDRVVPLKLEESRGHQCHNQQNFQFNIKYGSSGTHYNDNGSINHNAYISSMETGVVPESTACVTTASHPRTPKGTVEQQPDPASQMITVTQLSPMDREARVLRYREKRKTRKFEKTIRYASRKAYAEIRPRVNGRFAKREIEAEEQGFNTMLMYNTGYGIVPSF
UniProt Q9C6M5: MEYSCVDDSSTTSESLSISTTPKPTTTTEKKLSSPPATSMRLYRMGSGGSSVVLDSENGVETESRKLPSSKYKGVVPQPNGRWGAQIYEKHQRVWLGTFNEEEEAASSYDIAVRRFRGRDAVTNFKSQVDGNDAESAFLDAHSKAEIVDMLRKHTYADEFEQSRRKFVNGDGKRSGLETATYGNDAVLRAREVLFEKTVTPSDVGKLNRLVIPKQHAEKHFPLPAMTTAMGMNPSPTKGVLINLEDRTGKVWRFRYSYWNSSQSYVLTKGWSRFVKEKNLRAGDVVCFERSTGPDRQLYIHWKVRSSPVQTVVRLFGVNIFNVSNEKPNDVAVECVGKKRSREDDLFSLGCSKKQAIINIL
UniProt P82280: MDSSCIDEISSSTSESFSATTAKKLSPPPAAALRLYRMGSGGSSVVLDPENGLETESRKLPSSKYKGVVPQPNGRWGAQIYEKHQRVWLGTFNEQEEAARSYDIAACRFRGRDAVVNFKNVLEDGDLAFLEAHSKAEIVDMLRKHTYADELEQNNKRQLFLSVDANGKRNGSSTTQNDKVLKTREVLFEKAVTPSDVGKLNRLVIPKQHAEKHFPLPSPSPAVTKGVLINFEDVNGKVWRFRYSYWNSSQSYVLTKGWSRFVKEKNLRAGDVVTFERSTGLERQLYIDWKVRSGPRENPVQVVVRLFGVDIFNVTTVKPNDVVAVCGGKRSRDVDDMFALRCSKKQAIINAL
UniProt Q9S7Q7: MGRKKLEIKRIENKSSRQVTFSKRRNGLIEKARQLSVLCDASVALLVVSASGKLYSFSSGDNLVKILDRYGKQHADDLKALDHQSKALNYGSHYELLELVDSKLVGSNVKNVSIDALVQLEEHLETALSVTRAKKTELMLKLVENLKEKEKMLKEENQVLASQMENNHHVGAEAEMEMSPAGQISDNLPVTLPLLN
UniProt Q9C9W9: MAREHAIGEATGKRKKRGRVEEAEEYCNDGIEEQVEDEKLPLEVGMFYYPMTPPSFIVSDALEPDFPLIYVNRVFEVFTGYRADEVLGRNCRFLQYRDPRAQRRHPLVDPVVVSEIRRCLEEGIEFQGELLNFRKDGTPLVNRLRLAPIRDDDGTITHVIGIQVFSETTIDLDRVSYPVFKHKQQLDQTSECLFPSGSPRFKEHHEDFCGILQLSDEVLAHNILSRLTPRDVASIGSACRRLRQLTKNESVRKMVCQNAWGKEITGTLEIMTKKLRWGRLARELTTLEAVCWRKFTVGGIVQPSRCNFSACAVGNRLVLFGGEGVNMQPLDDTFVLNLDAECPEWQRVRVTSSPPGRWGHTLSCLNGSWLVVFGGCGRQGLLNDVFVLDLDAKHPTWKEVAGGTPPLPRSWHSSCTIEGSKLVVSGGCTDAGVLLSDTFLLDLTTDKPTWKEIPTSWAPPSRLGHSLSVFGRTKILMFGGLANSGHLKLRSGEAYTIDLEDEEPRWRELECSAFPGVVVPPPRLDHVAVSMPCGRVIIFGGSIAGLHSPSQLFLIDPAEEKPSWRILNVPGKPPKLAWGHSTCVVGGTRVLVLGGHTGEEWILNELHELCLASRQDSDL

Read-outs that look alike come from different tables or passages of the source. No constants are given. Whether binding was seen depends on the method and setting. For part of these data: Binding seen in cells or lysates may run through a third protein. Some results given as binding are weak or reduced against the parent protein; the word gives no strength. For part of these data: Where a sequence is shown, tags or fusion partners need not be part of it.

Assay [1] has as its target T1, DE-ETIOLATED1 (DET1), full-length, yeast two-hybrid bait (Arabidopsis thaliana) (UniProt P48732).
T1 sequence: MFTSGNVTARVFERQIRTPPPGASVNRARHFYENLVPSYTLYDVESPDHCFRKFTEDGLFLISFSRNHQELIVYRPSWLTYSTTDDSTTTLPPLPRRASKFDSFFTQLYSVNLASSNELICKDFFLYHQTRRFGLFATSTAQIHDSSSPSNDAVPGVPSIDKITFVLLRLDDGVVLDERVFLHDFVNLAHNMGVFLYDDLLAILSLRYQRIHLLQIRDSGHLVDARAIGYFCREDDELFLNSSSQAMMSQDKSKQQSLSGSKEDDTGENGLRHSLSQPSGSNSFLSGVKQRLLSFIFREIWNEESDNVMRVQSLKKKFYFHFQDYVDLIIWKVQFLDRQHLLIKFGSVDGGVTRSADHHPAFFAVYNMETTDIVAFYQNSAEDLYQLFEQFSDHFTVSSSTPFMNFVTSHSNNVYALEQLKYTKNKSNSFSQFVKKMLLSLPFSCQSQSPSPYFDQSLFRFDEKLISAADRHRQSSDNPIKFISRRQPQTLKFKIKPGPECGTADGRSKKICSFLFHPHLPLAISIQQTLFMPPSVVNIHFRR
The experiment in a line: two-hybrid; … GAL4 two-hybrid system 3 (pGBKT7 bait, pGADT7 prey) in S. cerevisiae AH109; growth on media lacking adenine, leucine, histidine and tryptophan; beta-galactosidase activity; full-length DET1 as bait in Figure 4b.

For assay [2], the target named is T2, nYFP-DET1 (Arabidopsis thaliana) (UniProt P48732).
T2 sequence: T1 sequence
Put plainly: split reporter; BiFC: nEYFP and cEYFP fusion plasmids mixed 1:1 and co-bombarded into onion epidermal layers, incubated on MS solid media with MG132 for 16-24 h at 22°C, confocal microscopy.

Assay [3] has as its target T3, TAP-DET1 (Arabidopsis thaliana) (UniProt P48732).
T3 sequence: T1 sequence
The experiment in a line: co-IP; TAP-IP with IgG beads from total protein extract of transgenic Arabidopsis seedlings grown in SD and treated with MG132; GI-HA detected with anti-HA antibody.

Assay [4] deals with T1, DE-ETIOLATED1 (DET1), full-length, yeast two-hybrid bait (Arabidopsis thaliana). Put plainly: two-hybrid; … GAL4 two-hybrid system 3 (pGBKT7 bait, pGADT7 prey) in S. cerevisiae AH109; growth on media lacking adenine, leucine, histidine and tryptophan; beta-galactosidase activity; full-length DET1 as bait in Figure 4b. This is another data set of the same source.
For assay [5], the target named is T4, DET1-nYFP (Arabidopsis thaliana) (UniProt P48732).
T4 sequence: T1 sequence
The experiment in a line: split reporter; BiFC: nEYFP and cEYFP fusion plasmids mixed 1:1 and co-bombarded into onion epidermal layers, incubated on MS solid media with MG132 for 16-24 h at 22°C, confocal microscopy.

Turning to “PHYB, yeast two-hybrid fusion (from UniProt P14713 1-1172)”, the binding result in assay [1] is reported as “no binding”.

On to “CONSTANS (CO), yeast two-hybrid fusion (from UniProt Q39057 1-373)”, for which the binding result in assay [1] is reported as “no binding”.

In the case of “TEM1, yeast two-hybrid fusion (from UniProt Q9C6M5 1-361)”, the binding result in assay [1] is given as “no binding”.

For “TEM2, yeast two-hybrid fusion (from UniProt P82280 1-352)”, the binding entry in assay [1] is given as “no binding”.

In the case of “FLOWERING LOCUS C (FLC), yeast two-hybrid fusion (from UniProt Q9S7Q7 1-196)”, in assay [1], the binding entry is “no binding”.

On to “SVP, yeast two-hybrid fusion (from UniProt Q9FVC1 1-240)”, for which the binding entry in assay [1] was “no binding”.

As for “FLAVIN-BINDING, KELCH REPEAT, F-BOX PROTEIN 1 (FKF1), yeast two-hybrid fusion (from UniProt Q9C9W9 1-619)”, in assay [1], the binding result is recorded as “no binding”.

B1: GI-cYFP (protein, UniProt Q9SQI2 1-1173)
chain: MASSSSSERWIDGLQFSSLLWPPPRDPQQHKDQVVAYVEYFGQFTSEQFPDDIAELVRHQYPSTEKRLLDDVLAMFVLHHPEHGHAVILPIISCLIDGSLVYSKEAHPFASFISLVCPSSENDYSEQWALACGEILRILTHYNRPIYKTEQQNGDTERNCLSKATTSGSPTSEPKAGSPTQHERKPLRPLSPWISDILLAAPLGIRSDYFRWCSGVMGKYAAGELKPPTIASRGSGKHPQLMPSTPRWAVANGAGVILSVCDDEVARYETATLTAVAVPALLLPPPTTSLDEHLVAGLPALEPYARLFHRYYAIATPSATQRLLLGLLEAPPSWAPDALDAAVQLVELLRAAEDYASGVRLPRNWMHLHFLRAIGIAMSMRAGVAADAAAALLFRILSQPALLFPPLSQVEGVEIQHAPIGGYSSNYRKQIEVPAAEATIEATAQGIASMLCAHGPEVEWRICTIWEAAYGLIPLNSSAVDLPEIIVATPLQPPILSWNLYIPLLKVLEYLPRGSPSEACLMKIFVATVETILSRTFPPESSRELTRKARSSFTTRSATKNLAMSELRAMVHALFLESCAGVELASRLLFVVLTVCVSHEAQSSGSKRPRSEYASTTENIEANQPVSNNQTANRKSRNVKGQGPVAAFDSYVLAAVCALACEVQLYPMISGGGNFSNSAVAGTITKPVKINGSSKEYGAGIDSAISHTRRILAILEALFSLKPSSVGTPWSYSSSEIVAAAMVAAHISELFRRSKALTHALSGLMRCKWDKEIHKRASSLYNLIDVHSKVVASIVDKAEPLEAYLKNTPVQKDSVTCLNWKQENTCASTTCFDTAVTSASRTEMNPRGNHKYARHSDEGSGRPSEKGIKDFLLDASDLANFLTADRLAGFYCGTQKLLRSVLAEKPELSFSVVSLLWHKLIAAPEIQPTAESTSAQQGWRQVVDALCNVVSATPAKAAAAVVLQAERELQPWIAKDDEEGQKMWKINQRIVKVLVELMRNHDRPESLVILASASDLLLRATDGMLVDGEACTLPQLELLEATARAIQPVLAWGPSGLAVVDGLSNLLKCRLPATIRCLSHPSAHVRALSTSVLRDIMNQSSIPIKVTPKLPTTEKNGMNSPSYRFFNAASIDWKADIQNCLNWEAHSLLSTTMPTQFLDTAARELGCTISLSQ
On to B1, for which the binding entry in assay [2] is reported as “binds”.

B2: GI-HA (protein, UniProt Q9SQI2 1-1173)
chain: B1 chain
For the molecule B2, the binding entry in assay [3] is “binds”.

B3: GIGANTEA N-terminal region (aa 1-507), yeast two-hybrid prey (domain or fragment, UniProt Q9SQI2 1-507)
chain: MASSSSSERWIDGLQFSSLLWPPPRDPQQHKDQVVAYVEYFGQFTSEQFPDDIAELVRHQYPSTEKRLLDDVLAMFVLHHPEHGHAVILPIISCLIDGSLVYSKEAHPFASFISLVCPSSENDYSEQWALACGEILRILTHYNRPIYKTEQQNGDTERNCLSKATTSGSPTSEPKAGSPTQHERKPLRPLSPWISDILLAAPLGIRSDYFRWCSGVMGKYAAGELKPPTIASRGSGKHPQLMPSTPRWAVANGAGVILSVCDDEVARYETATLTAVAVPALLLPPPTTSLDEHLVAGLPALEPYARLFHRYYAIATPSATQRLLLGLLEAPPSWAPDALDAAVQLVELLRAAEDYASGVRLPRNWMHLHFLRAIGIAMSMRAGVAADAAAALLFRILSQPALLFPPLSQVEGVEIQHAPIGGYSSNYRKQIEVPAAEATIEATAQGIASMLCAHGPEVEWRICTIWEAAYGLIPLNSSAVDLPEIIVATPLQPPILSWNLYIPLLKV
Turning to B3, the binding entry in assay [4] is given as “binds”.

B4: cYFP-MSI4 (protein, UniProt O22607 1-507)
chain: MESDEAAAVSPQATTPSGGTGASGPKKRGRKPKTKEDSQTPSSQQQSDVKMKESGKKTQQSPSVDEKYSQWKGLVPILYDWLANHNLVWPSLSCRWGPQLEQATYKNRQRLYLSEQTDGSVPNTLVIANCEVVKPRVAAAEHISQFNEEARSPFVKKYKTIIHPGEVNRIRELPQNSKIVATHTDSPDVLIWDVETQPNRHAVLGAANSRPDLILTGHQDNAEFALAMCPTEPFVLSGGKDKSVVLWSIQDHITTIGTDSKSSGSIIKQTGEGTDKNESPTVGPRGVYHGHEDTVEDVAFSPTSAQEFCSVGDDSCLILWDARTGTNPVTKVEKAHDADLHCVDWNPHDDNLILTGSADNTVRLFDRRKLTANGVGSPIYKFEGHKAAVLCVQWSPDKSSVFGSSAEDGLLNIWDYDRVSKKSDRAAKSPAGLFFQHAGHRDKVVDFHWNASDPWTIVSVSDDCETTGGGGTLQIWRMSDLIYRPEEEVVAELEKFKSHVMTCASKP
As to B4, in assay [5], the binding result is reported as “binds”.

B5: PHYA, yeast two-hybrid fusion (protein, UniProt P14712 1-1122)
chain: MSGSRPTQSSEGSRRSRHSARIIAQTTVDAKLHADFEESGSSFDYSTSVRVTGPVVENQPPRSDKVTTTYLHHIQKGKLIQPFGCLLALDEKTFKVIAYSENASELLTMASHAVPSVGEHPVLGIGTDIRSLFTAPSASALQKALGFGDVSLLNPILVHCRTSAKPFYAIIHRVTGSIIIDFEPVKPYEVPMTAAGALQSYKLAAKAITRLQSLPSGSMERLCDTMVQEVFELTGYDRVMAYKFHEDDHGEVVSEVTKPGLEPYLGLHYPATDIPQAARFLFMKNKVRMIVDCNAKHARVLQDEKLSFDLTLCGSTLRAPHSCHLQYMANMDSIASLVMAVVVNEEDGEGDAPDATTQPQKRKRLWGLVVCHNTTPRFVPFPLRYACEFLAQVFAIHVNKEVELDNQMVEKNILRTQTLLCDMLMRDAPLGIVSQSPNIMDLVKCDGAALLYKDKIWKLGTTPSEFHLQEIASWLCEYHMDSTGLSTDSLHDAGFPRALSLGDSVCGMAAVRISSKDMIFWFRSHTAGEVRWGGAKHDPDDRDDARRMHPRSSFKAFLEVVKTRSLPWKDYEMDAIHSLQLILRNAFKDSETTDVNTKVIYSKLNDLKIDGIQELEAVTSEMVRLIETATVPILAVDSDGLVNGWNTKIAELTGLSVDEAIGKHFLTLVEDSSVEIVKRMLENALEGTEEQNVQFEIKTHLSRADAGPISLVVNACASRDLHENVVGVCFVAHDLTGQKTVMDKFTRIEGDYKAIIQNPNPLIPPIFGTDEFGWCTEWNPAMSKLTGLKREEVIDKMLLGEVFGTQKSCCRLKNQEAFVNLGIVLNNAVTSQDPEKVSFAFFTRGGKYVECLLCVSKKLDREGVVTGVFCFLQLASHELQQALHVQRLAERTAVKRLKALAYIKRQIRNPLSGIMFTRKMIEGTELGPEQRRILQTSALCQKQLSKILDDSDLESIIEGCLDLEMKEFTLNEVLTASTSQVMMKSNGKSVRITNETGEEVMSDTLYGDSIRLQQVLADFMLMAVNFTPSGGQLTVSASLRKDQLGRSVHLANLEIRLTHTGAGIPEFLLNQMFGTEEDVSEEGLSLMVSRKLVKLMNGDVQYLRQAGKSSFIITAELAAANK
Take B5: the binding entry in assay [4] was “no binding”.
